± gives the standard deviation of the averaged measurements. This is one part of the list.

The experiment relates to PfAP2-LT AP2 domain (GST-tagged). The experiment is described as follows: gcPBM binding intensity (ln(normalized median fluorescence intensity)); higher = stronger DNA binding. Put shortly: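 DNA-binding domains from P. falciparum, fused to GST and produced in E. coli, were put on an Agilent 4 × 180k double-stranded probe array for 1 h in 1× PBS holding 1% milk, 0.2 mg/ml BSA, 0.5% salmon testes DNA and 0.03% Triton X-100. Probes were primer-extended, 36 bp long and drawn from intergenic genomic regions, with negative controls included. After Alexa488 anti-GST antibody detection and a 488 nm scan, binding intensity was set as the highest Masliner-normalised natural-log median intensity across replicate spots of either probe orientation.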
Take “TACTAATATGATATATAAATATTGTTATATAATAAT [XGTACX_negctrl_site227]”: the “gcPBM binding intensity (ln)” value was 8.46 ± 0.5. The figure for “TGAATACAAATTTACGCATGTAATTTCCAGAGGGAG [TGCATGCA_site769]” is 8.75 ± 0.48. For the sequence “AAAATAAAAGAAAAAAGTACAAAATCAGATTAATTA [XGTACX_site8413]”, the “gcPBM binding intensity (ln)” value was 8.74 ± 0.54. The figure for “ATATAAAACTATAATACACACATAAAATATATTATA [CACACA_site6588]” is 8.94 ± 0.37; for “GTATATTTTTAAAGGTGTACTTTTTTTTTTTTTTTT [XGTACX_site721]” it is 8.55 ± 0.65. As for “TATATTTATTTATTCTGTACTGAAGACAGTTATGTA [XGTACX_site8857]”, the “gcPBM binding intensity (ln)” value was 8.59 ± 0.59.

With “TATATAATACAACATGCACACATATATATGTGAATC [CACACA_site8794]”, the “gcPBM binding intensity (ln)” value came to 9.29 ± 0.29. “ATAAATATATATATAGTGCATATAAGCCACCTTCAA [GTGCAC_site9628]”: the “gcPBM binding intensity (ln)” value is 8.75 ± 0.45. The figure for “CGTAATAAAAACAAATGTACATGACCTGGACAGGTT [XGTACX_site6560]” is 8.97 ± 0.47.

In the case of “ATTTATATATAATATACACACATATAATACCCATAT [CACACA_site4548]”, the “gcPBM binding intensity (ln)” value amounted to 9.07 ± 0.27. The same measure for “TTTTTTAACTGTATGATGTTATATTAAAAATAAAAA [GTGCAC_negctrl_site463]”: 7.92 ± 0.4; for “AACGCACGAGGACACACACACATATTTATATTTATA [CACACA_site6608]”: 9.82 ± 0.41. With “ATTTAAAAAAAAAAAAAAAAAAAAAAAAAAAGAAAA [CACACA_negctrl_site722]”, the “gcPBM binding intensity (ln)” value came out at 8.15 ± 0.53. The figure for “TAATCCTTTCAATATTGTACACATTTGTGTTAAGAA [XGTACX_site1275]” is 8.66 ± 0.47; for “TATATTATGACCACCACACACCTATACACATAACAT [CACACA_site7199]” it is 9.45 ± 0.16; for “TTTAATATTAGCATATGTACACAAATCACACGGAAA [XGTACX_site2473]” it is 8.79 ± 0.36. As to “ATATATTTTATATAATGTACATAAACCGCACACATA [XGTACX_site6061]”, the “gcPBM binding intensity (ln)” value is 9.3 ± 0.33. Consider “TTTCAAATTTAATACACACACAAGTATATATCTATC [CACACA_site7782]”, for which the “gcPBM binding intensity (ln)” value turned out to be 9.15 ± 0.48.

On to “TCATACGAAATATAAACACACATACAATAAATAAAT [CACACA_site5156]”, for which the “gcPBM binding intensity (ln)” value worked out at 9.22 ± 0.36. With “ATAATATAAATACAAACACACAATTGCGTCCACATT [CACACA_site5039]”, the “gcPBM binding intensity (ln)” value came to 9.28 ± 0.51. On to “ATTTAATTTGTTCTTACACACACATATATATATATT [CACACA_site8310]”, for which the “gcPBM binding intensity (ln)” value turned out to be 9.6 ± 0.37. In the case of “TCAAATATATAGAATACACACATGGATATAAGAAAT [CACACA_site4065]”, the “gcPBM binding intensity (ln)” value is 9.2 ± 0.4. As for “GGACAAGAATAGTGCACATGCAATGTTATTTTTTAT [TGCATGCA_site450]”, the “gcPBM binding intensity (ln)” value is 9.06 ± 0.65.

For the sequence “ATTATAACCATATACACACCCATATAAATAAATATA [CACACA_site6926]”, the “gcPBM binding intensity (ln)” value was 9.08 ± 0.28. In the case of “CGTTTTAATAAGATCACACATATAATATATATATAT [CACACA_site5159]”, the “gcPBM binding intensity (ln)” value was 8.78 ± 0.23.

Turning to “TATTAAATGGCCATTACATGCAATTATTTCTAATAA [TGCATGCA_site275]”, the “gcPBM binding intensity (ln)” value came out at 8.54 ± 0.42. Consider “ATATTAAATGTTATCACACACATAATTACTTCCATA [CACACA_site7160]”, for which the “gcPBM binding intensity (ln)” value is 9.21 ± 0.38. Take “GCATATAAAATAAATCGTACATGTAAAACATAATTA [XGTACX_site7077]”: the “gcPBM binding intensity (ln)” value was found to be 8.9 ± 0.4.

Turning to “GCTGAAAGGATAAAGGTGCATATTTTTTAAAAAATT [GTGCAC_site9487]”, the “gcPBM binding intensity (ln)” value came out at 8.7 ± 0.49. The figure for “AATATTTTATATGTAGTGCATTACTATAGGATTTAT [GTGCAC_site9424]” is 8.7 ± 0.36; for “TTTTTTTTTTTTATATGTACTAATAATCTTTTTTTT [XGTACX_site3552]” it is 8.58 ± 0.51. For the sequence “TGCTTATATCTTATAATATTTATACATCATAATAAG [CACACA_negctrl_site629]”, the “gcPBM binding intensity (ln)” value stood at 8.47 ± 0.47. The figure for “TGTGTCAAATAATTAATGTCATATATATTTTGTATA [CACACA_negctrl_site1479]” is 8.59 ± 0.38; for “ACAAAATAAACGGCTGCACACAAGAAGCACAATATT [CACACA_site3690]” it is 9.55 ± 0.47.

Turning to “GGCAGCAATTTAGTTACACACATATATAGGTATACA [CACACA_site76]”, the “gcPBM binding intensity (ln)” value amounted to 9.21 ± 0.41. The figure for “GATAGAAAAAAATAATGTACACACACATATATGTTT [XGTACX_site392]” is 9.34 ± 0.46. Regarding “TTTCTTTTTTCTGTTATTATTATAAAACGATATTTA [TGCATGCA_negctrl_site167]”, the “gcPBM binding intensity (ln)” value was 8.42 ± 0.45. The figure for “TATTTTTATTTTAATTGTACTTTTTAATTAATAATA [XGTACX_site8302]” is 8.39 ± 0.48; for “TACACATACCCATACACACGCATAGAAACATACGAA [CACACA_site5212]” it is 9.33 ± 0.42; for “ATACATATTCTTATTTGTACTTATTATAAAATGGTC [XGTACX_site6584]” it is 8.79 ± 0.38.

In the case of “TAACTGATATATAAAACACACATCATAAAAATATAA [CACACA_site6499]”, the “gcPBM binding intensity (ln)” value was 8.9 ± 0.4.

Consider “ACAATAATTTCCATCACACATATATTTATATATTAC [CACACA_site6003]”, for which the “gcPBM binding intensity (ln)” value was found to be 8.99 ± 0.44. Turning to “TTGCATCTACATTTATGTACATATCTTATGATAAAT [XGTACX_site2146]”, the “gcPBM binding intensity (ln)” value stood at 9.15 ± 0.39.

As for “AAATATATCTTCTTTGCACACTTAAAGGGAAGTGAT [CACACA_site343]”, the “gcPBM binding intensity (ln)” value is 8.79 ± 0.32. “AGATATATTTTTTAAATTTAAAAATTATAAAATTTA [CACACA_negctrl_site533]”: the “gcPBM binding intensity (ln)” value stood at 8.05 ± 0.51.

Consider “AATTATACTCACGTTACACACACACTATATATATAT [CACACA_site9375]”, for which the “gcPBM binding intensity (ln)” value was found to be 9.67 ± 0.18. The same measure for “TCAAAATGTTACAAATTATGTTGGCTAAAATTTTAA [TGCATGCA_negctrl_site188]”: 8.21 ± 0.33; for “TTGAACCTGATAAATACACACAATATAGATTTTTTT [CACACA_site7091]”: 8.77 ± 0.41; for “ACACATATAAATAAAACATGCATATGTAAATATATA [TGCATGCA_site403]”: 9.23 ± 0.44. The figure for “TATAATATAATATTTTGTACATATGATAAAAAAAAA [XGTACX_site6858]” is 8.44 ± 0.42; for “TTATAATATGTATACACACACATATATAAATATATA [CACACA_site2326]” it is 9.12 ± 0.32.

Take “TTTTGTTATATACAATAGATCAGAAGAAATGAAGTT [CACACA_negctrl_site1579]”: the “gcPBM binding intensity (ln)” value stood at 8.5 ± 0.4.

As for “CTTACGTATTAAGTGTGTCCGTAGTGTTCATAGTTC [XGTACX_site8913]”, the “gcPBM binding intensity (ln)” value stood at 9.1 ± 0.35. The figure for “CAATGTTAACATATTACACACATATGTATATAGAAT [CACACA_site2732]” is 9.15 ± 0.38; for “TGTACGAGTCGTAGAGTGCAGTCTGGAGAAGAGTAC [GTGCAC_site9684]” it is 9.11 ± 0.51. In the case of “AAAATTTATAAAAGCACACAAAATAAAAAAAAATGA [CACACA_site1491]”, the “gcPBM binding intensity (ln)” value came to 8.88 ± 0.46.

These data come from the supplement of paper PMC11417369.
